The list shows a part of the results.
B1: chr14:88572724:88572825:+|CDS|ENSG00000100722|unk|FALSE|unique (ssRNA)
RNA: GGGAGUUCUACAGUCCGACGAUCGUGACACUUACAUAUGGUUCUUCUCGCCCUUCUAUUGAAAUUUAUCGACCACCUGCAAGUAGAAAUGCAGAUAGUGGUGUUCAUUUAAACAGGUUGCAAUUUCAACAGCAGCAGAAUAGUCAACAGAGGAUUGAGCAUCA
B2: chr12:30637093:30637194:-|CDS|ENSG00000133704|unk|FALSE|bound_elsewhere (ssRNA)
RNA: GGGAGUUCUACAGUCCGACGAUCUGUCUACAUUUUUUUUUUCUUCAAAAUUUGCAGGCAUCAUGACCGGAAGAUGUGUAUAAUAGGACUGAGUAUCCUUUUGGAAUUGCAAAAUCGACCUCCUGCAGUAGAUGCUGUGGUGGGCAACAGAGGAUUGAGCAUCA
B3: ENSG00000124766:be:win_3551|3pUTR|ENSG00000124766|bound_else_gene|NA|bound_elsewhere_windowed (ssRNA)
RNA: GGGAGUUCUACAGUCCGACGAUCCGUUUAAACCACUGGAUCUAUCUAAAUGCCGAUUUGAGUUCGCGACACUAUGUACUGCGUUUUUCAUUCUUGUAUUUGACUAUUUAAUCCUUUCUACUUGUCGCUAAAUAUAAUUGUUUUCAACAGAGGAUUGAGCAUCA
B4: chr1:40238196:40238297:+|CDS|ENSG00000117000|msi1|total|mutant (ssRNA)
RNA: GGGAGUUCUACAGUCCGACGAUCCGGUAUUCCCCAUUUCAGUGUCAUAUUUGCCAAAGGUCAUUUACAAGAAAAACACACCUCCGGAUUCAUUAUAAAAAUAAACAUCAAAUUGGCAGUGACAGAGCAACUCACAAACUAUUACAACAGAGGAUUGAGCAUCA
B5: chr10:110602053:110602155:+|CDS|ENSG00000108055|unk|FALSE|unique (ssRNA)
RNA: GGGAGUUCUACAGUCCGACGAUCCAGUUUGUAAAUUUCUCCGAGCAGAAAGAAAAGUUAAUAAAGCGUCAAGAAGAGUUAGAUAGGGGUUACAAAUCAAUCAUGGAACUGAUGAAUGUACUUGAACUUCGGAAAUAUGAAGCUCAACAGAGGAUUGAGCAUCA
B6: chr12:132722103:132722204:+|3pUTR|ENSG00000247077|msi1|FALSE|unique (ssRNA)
RNA: GGGAGUUCUACAGUCCGACGAUCGCUUCGCCUUUGACCUUCAUGCUGGUCUCGGCUGAGGUGACACGCUAGUGACAGCCCAAUAGGGGGUUACCCUUAUUGAGUAAAAUACUUCAGAUUGACAGCUCAAUCUUAGUUUGCCUCCAACAGAGGAUUGAGCAUCA
B7: chr17:57972098:57972209:-|3pUTR|ENSG00000136451|unk|total|mutant (ssRNA)
RNA: GGGAGUUCUACAGUCCGACGAUCCCCGAAUGUGGUUGUCAGAACCCUGAAAGUAUCCGUUCUAAAAAAAAAAAGAUAUAUACCCGAAGUAAUUGUUUUAUCAAUUCAUUGUAUAAUAAACAGGAGUGAGACUUCAUUGUAUGACAACAGAGGAUUGAGCAUCA
B8: chr1:23094017:23094118:-|CDS|ENSG00000169641|unk|total|mutant (ssRNA)
RNA: GGGAGUUCUACAGUCCGACGAUCCUCCAGAAAGCAGAGGAUGAACUCCUGGAUCUCCAGGACAAGGUGAUUCAGGCAGAAGGCCGCAACUCCAGCAUGUUGGCGGAGAUUGAAGUGCUGCGCCAGCGGGUGCUGAGAAUUGAACAACAGAGGAUUGAGCAUCA
B9: ENSG00000070961:be:win_851|CDS|ENSG00000070961|bound_else_gene|NA|bound_elsewhere_windowed (ssRNA)
RNA: GGGAGUUCUACAGUCCGACGAUCCUGGAAUUAUCUUUACCUUACUUGGAGCUGGAGGUGAAGAGGAAGAGAAGAAAGAUGAGAAGAAAAAGGAAAAGAAAAAUAAGAAACAAGAUGGAGCUAUUGAGAAUCGCAACAAAGCAACAACAGAGGAUUGAGCAUCA
B10: chr1:151800263:151800922:-|three_prime_utr|ENSG00000213171|control|control|control (ssRNA)
RNA: GGGAGUUCUACAGUCCGACGAUCCCAAGUCCGCUUCAGAUACCAAAGGGGAAGACAGAACCAAGGCUGCUUGAACCAGAACCUAGUCCCGAGCAGCACCGCUCUCCUGCACCUCCCGCCUGCGUUGUGCCUCCUGCCGGAGAGCAACAGAGGAUUGAGCAUCA
B11: ENSG00000143742:stop:overlap|stop_codon|ENSG00000143742|stop_codon|NA|stop_codon (ssRNA)
RNA: GGGAGUUCUACAGUCCGACGAUCAAUAUAGGCAUUCUGAUGGGAACUUGUGUGUUAAAGUAACAGAUGAUUUAGUUGAUCAUUAGUUCCUGUUGUUUAAAACUCAUGUGAACCUUUAAGAUGGGCUGAAGAAAAGUGGAUCUGCAACAGAGGAUUGAGCAUCA
B12: ENSG00000147130:stop:overlap|stop_codon|ENSG00000147130|stop_codon|NA|stop_codon (ssRNA)
RNA: GGGAGUUCUACAGUCCGACGAUCAAAAGCGGUUCUGCAACACAACCUGCUUGGGGGCGUACAAGAAGGUGGGGCCGAGGGAGUAGUGCAUUAGAGGGCUGUGGAAGGGGGUGUGGUUCUUGGGUUAUAAAUAAAGGUGGCUGACAACAGAGGAUUGAGCAUCA
B13: chr3:58171454:58171555:+|3pUTR|ENSG00000136068|msi1|FALSE|unique (ssRNA)
RNA: GGGAGUUCUACAGUCCGACGAUCGGUGAUUAUUUCUUGCAGAAUCACCACACGAGACCAUCCCGGCAGUCAUGGUUUUGCUUUAGUUUUCCAAGUCCGUUUCAGUCCCUUCCUUGGUCUGAAGAAAUUCUGCAGUGGCGAGCACAACAGAGGAUUGAGCAUCA
B14: chr1:86742159:86742388:+|CDS|ENSG00000097033|unk|FALSE|bound_elsewhere (ssRNA)
RNA: GGGAGUUCUACAGUCCGACGAUCUGUACCAUCAGUUUUACCAAAUGCGAUUGGUUCUUCUGCCAUGGCUUCAACAAGUGGCCUAGUAAUCACCUCUCCUUCCAACCUCAGUGACCUUAAGGAGUGUAGUGGCAGCAGAAAGGCCAACAGAGGAUUGAGCAUCA
B15: chr9:133763799:133763900:-|3pUTR|ENSG00000160293|msi1|FALSE|unique (ssRNA)
RNA: GGGAGUUCUACAGUCCGACGAUCCGAACCGUUUCACUGUCAGCCUGCCCUCGGCGACCCAUCACUGGGUAUGCUAUUGUACAUAGAGGAAACCUGGGCUAGCCCCACCCAGAGCGCAGAGGAGGGGGCACCGACAGCGCUGCGCAACAGAGGAUUGAGCAUCA
B16: ENSG00000070961:be:win_4501|3pUTR|ENSG00000070961|bound_else_gene|NA|bound_elsewhere_windowed (ssRNA)
RNA: GGGAGUUCUACAGUCCGACGAUCCCUUUUGUUCAGAAUUUAGUAGAUUGUUUAAUGCAGGACAUCAACUACAUAAUGAAAGAUGCUUGAAAUGCUUUUGUUAUUUCAGGCAAAUCAAAUUAAAUCAGACUAUCAAACUACAAGCAACAGAGGAUUGAGCAUCA
B17: ENSG00000169710:stop:overlap|stop_codon|ENSG00000169710|stop_codon|NA|stop_codon (ssRNA)
RNA: GGGAGUUCUACAGUCCGACGAUCCCAUCAUCAGCAUCAUCCACAGCUCCCUGGCUGAGCCACGCGUGAGCGUGCGGGAGGGCUAGGCCCGUGCCCCCGCCUGCCACCGGAGGUCACUCCACCAUCCCCACCCCACCCCACCCCCAACAGAGGAUUGAGCAUCA
B18: chr7:32869766:32869881:-|CDS|ENSG00000170852|unk|total|mutant (ssRNA)
RNA: GGGAGUUCUACAGUCCGACGAUCAUGUACUGUUAUUUUCCAAGGUCUGACUCAUGGGCCGAAAUGGCCAUGAGACAGACCCGCCGGUCCUUUGCUUCAGCUGCAGCUUUUGGUGAUAAAAUUUUCUAUAUUGGAGGGUUGCAUCAACAGAGGAUUGAGCAUCA
B19: chr6:55753652:55755532:-|three_prime_utr|ENSG00000112175|control|control|control (ssRNA)
RNA: GGGAGUUCUACAGUCCGACGAUCUAAGGUUUAUGGCUGCAAUAAAAAGCAUACUUUCAGACAAACGGGGAAUUUCCUAAAAUUAGUCUGGCUCAUUUUGACUCUUUUCCUAUGUACAAUAUCAUGUAUAUAGUCAUUUUUAUUCAACAGAGGAUUGAGCAUCA
B20: chr3:11557766:11557867:-|3pUTR|ENSG00000144560|msi1|FALSE|unique (ssRNA)
RNA: GGGAGUUCUACAGUCCGACGAUCCUGGACUGCAGACUCUACCAAUCACGGGCAUUUUAUCUUCUCUGAACACUGCAGUUUGUUAGACUAGAGCUGAGGUUGGAGGAUUCCAUAGUGCUUUAAACGUGAUGCAUGUUUUAAUGGCAACAGAGGAUUGAGCAUCA
B21: chr3:185917260:185917361:-|3pUTR|ENSG00000136527|msi1|total|mutant (ssRNA)
RNA: GGGAGUUCUACAGUCCGACGAUCUGGCAAAAAGCAACAAUAAACAGUUUGAUUUUUACUUUUCUUUCUAACAUAUCAAUGCUCCGCAGAACUAUUCAGAUUGUCAGCCGUAAAUUUAAAGACAAAUGCCCGUUUUCCUCCAGUCAACAGAGGAUUGAGCAUCA
B22: chr2:42682433:42682535:+|CDS|ENSG00000057935|unk|total|mutant (ssRNA)
RNA: GGGAGUUCUACAGUCCGACGAUCUCACGCUAUGGAUACAUUGUACCGACACAGCUAUGAUUUGAGCAGUGCCAUCCGUGUCUCCGUACCACUCGGAGGACCUGUUUUAUGCAGAGAUGAAAUGGAGGAAUGGUCAGCCUCUGACAACAGAGGAUUGAGCAUCA

What follows are binders tested against T1, UNK ZnF1-6 (called full-length) (human, UniProt Q9C0B0 30-357) (assay: nsRBNS (natural sequence RNA bind-n-seq); RBNS binding buffer (assumed for nsRBNS): 25 mM Tris pH 7.5, 150 mM KCl, 3 mM MgCl2, 0.01% Triton X-100, 500 ug/ml BSA, 20 U/ml SUPERase-In, 4 C; UNK is unkempt and MSI1 is Musashi-1; names of the RNAs are library labels; protein concentration not given here; high values mean tight binding).
T1 sequence: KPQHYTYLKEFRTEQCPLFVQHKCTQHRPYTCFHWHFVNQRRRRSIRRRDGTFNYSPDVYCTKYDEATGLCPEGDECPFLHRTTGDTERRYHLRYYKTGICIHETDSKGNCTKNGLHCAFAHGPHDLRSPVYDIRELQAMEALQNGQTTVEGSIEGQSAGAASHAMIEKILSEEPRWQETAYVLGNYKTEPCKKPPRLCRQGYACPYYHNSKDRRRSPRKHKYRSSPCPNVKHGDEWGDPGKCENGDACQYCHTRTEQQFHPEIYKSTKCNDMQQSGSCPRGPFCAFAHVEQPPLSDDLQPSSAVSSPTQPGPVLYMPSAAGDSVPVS

| Binder | binding signal |
| --- | --- |
| B1 | 0.593 enrichment R |
| B2 | 0.523 enrichment R |
| B3 | 0.628 enrichment R |
| B4 | 0.703 enrichment R |
| B5 | 0.451 enrichment R |
| B6 | 0.467 enrichment R |
| B7 | 0.54 enrichment R |
| B8 | 0.488 enrichment R |
| B9 | 0.976 enrichment R |
| B10 | 0.643 enrichment R |
| B11 | 0.904 enrichment R |
| B12 | 0.689 enrichment R |
| B13 | 0.682 enrichment R |
| B14 | 0.516 enrichment R |
| B15 | 0.73 enrichment R |
| B16 | 0.383 enrichment R |
| B17 | 0.273 enrichment R |
| B18 | 0.377 enrichment R |
| B19 | 0.886 enrichment R |
| B20 | 0.912 enrichment R |
| B21 | 0.344 enrichment R |
| B22 | 0.568 enrichment R |

Reference: publication PMC12136788
